Hit rate of the full screen: of about 390,000 compounds, about 910 (0.23%) were called active. Inconclusive results (about 5%) are left out. Calls come from the whole dose curve; as a rule, active = well fitted inhibition curve with a large enough effect; inconclusive = small, poorly fitted or top-dose-only effect; inactive = no such curve, though single readings can be large or run the other way. This is a selection; strong and weak results do not stand in their true shares.
Target: Ubiquitin carboxyl-terminal hydrolase 1 (Homo sapiens) (UniProt O94782)
Test: Inhibitors of USP1/UAF1: Primary Screen; note: nearly all actives have a fitted effect of over 60% in size
Conditions: recombinant USP1/UAF1, Ub-Rhodamine cleavage fluorescence; activity change, negative = inhibition: at 57.1 µM (top of the series)
Method in brief: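 Step one: compound is pinned into 1nM USP1/UAF1 in HEPES pH 7.8 buffer with TCEP. Step two: 15 min room-temperature incubation. Step three: Ub-Rho (150nM final) starts cleavage, tracked by fluorescence over six one-minute reads.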
% is set by controls: 0 for no effect and ±100 for the full control effect; potency is the fitted concentration of half-maximal effect.

Chain of UniProt O94782 (O94782 whole entry, looked up): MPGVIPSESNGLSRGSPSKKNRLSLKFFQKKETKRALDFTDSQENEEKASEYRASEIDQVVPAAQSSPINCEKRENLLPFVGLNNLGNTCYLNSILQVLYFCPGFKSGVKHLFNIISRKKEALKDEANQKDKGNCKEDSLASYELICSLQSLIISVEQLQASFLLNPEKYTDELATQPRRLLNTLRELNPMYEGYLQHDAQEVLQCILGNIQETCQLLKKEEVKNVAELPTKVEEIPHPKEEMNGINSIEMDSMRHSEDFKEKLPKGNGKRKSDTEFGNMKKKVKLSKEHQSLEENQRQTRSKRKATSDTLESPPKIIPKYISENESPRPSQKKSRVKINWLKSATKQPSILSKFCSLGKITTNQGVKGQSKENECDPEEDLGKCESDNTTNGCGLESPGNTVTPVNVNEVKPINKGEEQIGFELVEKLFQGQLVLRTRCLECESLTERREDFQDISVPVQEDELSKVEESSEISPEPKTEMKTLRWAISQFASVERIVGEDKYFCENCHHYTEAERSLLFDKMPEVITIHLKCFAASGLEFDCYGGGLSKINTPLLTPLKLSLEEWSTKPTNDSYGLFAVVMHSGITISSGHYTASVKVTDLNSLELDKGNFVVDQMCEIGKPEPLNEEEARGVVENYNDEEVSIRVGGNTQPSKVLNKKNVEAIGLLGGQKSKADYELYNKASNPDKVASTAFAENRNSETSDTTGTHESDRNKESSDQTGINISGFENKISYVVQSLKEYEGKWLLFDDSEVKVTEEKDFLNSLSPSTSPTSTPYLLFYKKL

Activity change, negative = inhibition, inactive:
COc1cccc(NC(=O)C2CCCN2S(=O)(=O)c2ccc3c(c2)C(C)(C)C(=O)N3C)c1 (stereo not drawn) -20.9%
O=c1oc2ccccc2cc1-c1nc(-c2cccs2)cs1 265%
O=C(NCc1ccccc1)C1=C[C@@H](c2csc3ccccc23)C[C@@H](OCCCCO)O1 -27%
O=C(c1ccc(OCCN2CCCCC2)cc1)c1c(-c2ccc(O)cc2)sc2cc(O)ccc12 3.67%
C[C@@H]1CN([C@@H](C)CO)C(=O)CCCn2nncc2CO[C@H]1CN(C)C(=O)Nc1ccc2c(c1)OCO2 5.63%
O=C(NC1CC1)C1=C[C@@H](c2c[nH]c3ccccc23)C[C@@H](OCCCCO)O1 -14.4%
COc1ccc(NC(=O)c2oc3ccc(S(=O)(=O)N4CCOCC4)cc3c2C)cc1 -7.31%
C[C@H]1CN([C@@H](C)CO)C(=O)CCCn2nncc2CO[C@H]1CN(C)S(=O)(=O)c1ccccc1F -13.6%
CCCCCCN1C[C@H](n2cc(-c3ccc(F)cc3)nn2)[C@@H](O)C[C@@H]1c1ccc(OC)cc1 3.4%
Oc1ccc(C[C@@H]2CNCCN2CCCCC2CCCCC2)cc1 -5.72%
COCCCNC(=O)C(C#N)c1nc2ccccc2nc1N1CCCC1 (stereo not drawn) 28.9%
Cn1c(Nc2ccc(Cl)cc2)cc(=O)n(C)c1=O -8.39%
C[C@H](CO)N1C[C@H](C)[C@@H](CN(C)Cc2cncnc2)Oc2cc(Br)ccc2S1(=O)=O 3.86%
CCOc1ccc(NC(=O)CC2C(=O)N(c3ccccc3)C(=O)N2CCc2cccs2)cc1 (stereo not drawn) 1.69%
O=C(NCc1ccccn1)[C@H]1C[C@@H]1[C@H](NP(=O)(c1ccccc1)c1ccccc1)c1ccccc1 3.43%
C[C@@H]1CN([C@H](C)CO)C(=O)CCCn2cc(nn2)CO[C@H]1CN(C)S(=O)(=O)c1ccc(Oc2ccccc2)nc1 -6.99%
CC1CCCCC1NC(=O)COC(=O)c1c2c(nc3ccccc13)/C(=C/c1ccco1)CC2 (stereo not drawn) -22.3%
CCN(CC)c1nc2ccccc2nc1C(C#N)C(=O)NCCc1ccccc1 (stereo not drawn) 150%
C[C@H](CO)N1C[C@H](C)[C@@H](CN(C)C(=O)CCC(F)(F)F)OCc2cnnn2CCCC1=O -21.5%
N=C1/C(=C\c2ccc(-c3cccc(C(=O)O)c3)o2)C(=O)N=C2SC=C(c3ccccc3)N12 -12.6%
O=C(NCCS(=O)(=O)N1CCN(c2ccccc2)CC1)C1CC(=O)N(c2ccccc2)C1 (stereo not drawn) -1.15%
CCOc1cc(N(CC)CC)ccc1/C=C(/C#N)c1nc2ccccc2[nH]1 30.2%
Cc1c(NC(=O)c2cc(-c3cccc(Cl)c3)on2)c(=O)n(-c2ccccc2)n1C -10.2%
O=C1CC(=O)Nc2cc(S(=O)(=O)N3CCOc4ccccc43)ccc2N1 -2.63%
CCO[C@H]1OC(C(=O)NC2CC2)=C[C@@H](c2csc3ccccc23)[C@@H]1CCCO -25.1%
COc1cccc(CNC(=O)C(C)n2ccc3cc(S(=O)(=O)N4CCCCCC4)ccc32)c1 (stereo not drawn) -13.3%
CC(C)NC(=O)Nc1ccc2c(c1)C(=O)N([C@H](C)CO)C[C@H](C)[C@@H](CN(C)Cc1ccc(C(F)(F)F)cc1)OCCCC[C@@H](C)O2 -9.87%
COc1ccc(CNC(=O)c2nnn(CC(=O)Nc3cc(C)cc(C)c3)c2N)cc1 -17.7%
Cc1nn(Cc2ccc(Cl)cc2)c(C)c1NC(=O)c1noc2c1CCc1ccccc1-2 -17.1%
CC(C)Oc1ccc(CNC(=O)Cn2c(=O)oc3ccccc32)cc1 -25.8%
CCN=C1SC(CC(=O)Nc2ccccc2)C(=O)N1CC (stereo not drawn) -20.7%
Cc1cc(-c2ccccc2)c2c3c(c(-c4ccccc4)n2n1)c(=O)n(C)c(=O)n3C 36.9%
C[C@@H]1CN([C@@H](C)CO)C(=O)CCCn2nncc2CO[C@H]1CN(C)C(=O)C1CCCCC1 -16.1%
COc1cccc(-c2cc(C(=O)Nc3ccn(Cc4ccc(C)cc4)n3)no2)c1 -10.4%

Potency, active:
Nc1cccc2c(O)cc(S(=O)(=O)O)cc12 25.1 µM
O=C(Nc1nc2c(s1)CN(Cc1ccccc1)CC2)c1cccc(S(=O)(=O)N2CCc3ccccc32)c1 28.2 µM
COc1cc2c3nnc(-c4ccc(F)cc4)c-3cn(Cc3ccccc3)c2cc1OC 31.6 µM
C=CCN1C=CC(=C/C=C(/C#N)C(=O)OCC)C=C1 28.2 µM
CCOc1ccc(N=C2NC(=O)S/C2=C\c2ccc(N(C)C)cc2)cc1 28.2 µM
S=C(Nc1ccc(N2CCOCC2)cc1)Nc1ccc2nc(-c3ccco3)c(-c3ccco3)nc2c1 25.1 µM
CCCOc1cc2c(C#N)c(N3CCCC3)nc(N)c2c(N)n1 28.2 µM
COc1cc(NCCCC(C)N)c2ncccc2c1 (stereo not drawn) 5.01 µM
O=C1C(Nc2ccccc2)=C(N2CCCCC2)C(=O)c2ccccc21 25.1 µM

— PubChem BioAssay AID743255 (National Center for Advancing Translational Sciences (NCATS), 2014)
